Laboratory results published in the RNAGym collection of RNA variant scans (doi:10.7554/elife.90254).
Read counts are not given, so values of variants with three or more changes are uncertain.

B1: LINE1-mini (parent)
chain: GGCAGAGCUCAACACAGCGUGGCAAAGUGGCUGUGGCUAGACUGCC

Variants of: B1
Assay: self-cleavage, relative activity (ratio to wild type); higher = more cleavage; in vitro, sequencing; the parent is a self-cleaving ribozyme

Row | Variant | self-cleavage
1 | C37A A41C G44C | 0.14
2 | C8U C13U G29C | 0.07
3 | G21C U34G G36A A41C | 0.04
4 | G5A C15G C18A U34C | 0.02
5 | C10A U20G C31U G35C U43A | 0.03
6 | A25C G30U U43A | 0.06
7 | G5C G29U G33A G35A | 0.03
8 | C13A A14G C18U G44C | 0.06
9 | C13A G33A C45G | 0.11
10 | U9G U20G G27A G29C G35A | 0
11 | G2U G21U U32A G40U | 0.2
12 | A4C C13U A41U | 0.24
13 | C10A A11C G19U C23U A24U | 0.01
14 | A6U C13A C23U U32C C45A | 0.05
15 | G5A U9G G27C U38A A39C | 0.05
16 | C3A U9G A14G A24U G40U | 0.25
17 | G7U C10A G21U A24C | 0.01
18 | C3U G22U C23G A26C | 0.73
19 | A6G A25G A26U | 0.05
20 | C3G G29A C31U U34G C37G | 0.08
21 | A6U C10G G27A G40A C42G | 0
22 | C3U A16U C23A C37A C45G | 0.21
23 | C13U U34C G44A | 0.07
24 | C18G G29A C31G G36A | 0.01

Row | Variant | self-cleavage
25 | C8A C23U C42A | 0.1
26 | C13G C23A A26U | 0.26
27 | G1A C31G G33A G44A | 0.04
28 | G29U G35A C46G | 0.04
29 | C10A A24C G29U | 0.01
30 | A6C G21U G27C G33U | 0.04
31 | G7U C13A G21A G29A G35A U43A | 0.02
32 | A14U U20A U32G G36U G44U | 0.03
33 | U20A U28G U38G | 0.02
34 | A12U G22C U43A | 0.01
35 | A11G A16C G22U G29U A39G | 0.01
36 | G1C A12G A25U C42A | 0.02
37 | C23A G40C C42U | 0.02
38 | G21U A24U U38G | 0.03
39 | C15A G19C U32C | 0.03
40 | A14U G40U C46A | 0
41 | C13U A39U C46A | 0.02
42 | G21A G27U G30A | 0.55
43 | C23A C31U U38C G44C | 0.04
44 | G30A G40C C42A | 0.19
45 | G5C G22C A26G G35C | 0
46 | C15U C23U G36U C46G | 2.84
47 | G2C C23A G30C | 0.54
48 | C3A G30A A39G | 0.1

Row | Variant | self-cleavage
49 | C3U G5C C13A C23A C46U | 0.06
50 | G5C A16C G21C G40U | 0.04
51 | A6G A25G G40C | 0.01
52 | G5A G7C A12U U38G | 0
53 | A11C C18G G27A C45G | 0.01
54 | C10A A14G A16U C46A | 0.04
55 | C3U C18U G33A | 0.06
56 | C8U C18U A26U G30A C37A | 0.22
57 | C3A G5U G19U C42U | 0.16
58 | G2A C3G G21U U28G | 0.24
59 | G5A A26U G33U C37U C45G | 0.01
60 | C3A A11C G21A G22U A41C | 0.06
61 | A11U G22U G29C A39C | 0.02
62 | G7A U9C U43A | 0.15
63 | C13A G27C U34C | 0.01
64 | C8G G19U G22U U28G A39U | 0
65 | A4G C18G U28A G36C U43A | 0.04
66 | C8G C37A C45A | 0.02
67 | G35U C42G C46U | 0.04
68 | G2C C18A A26C | 0.03
69 | G2U G7A U9G | 0.03
70 | A6C G7C C23A C45G | 0.06
71 | G2A C3A G27U | 1.8
72 | U9C A24C G30A G36A A39U | 0.03

Row | Variant | self-cleavage
73 | G7C A11U G35U | 0.03
74 | G5U A6C U28G C31U U34C C37U U43C | 0.01
75 | G5A A12U G17C G36C C37U | 0.13
76 | C3U A6U A26U G27C G35C C37G | 0.09
77 | C8A G27A C46U | 0.1
78 | A12C G27A A39U | 0
79 | C8G A14C U43A | 0.13
80 | A12C C23U G40U C42U | 0.04
81 | C15G A16U G19A | 0.06
82 | C10G G22C G36U | 0.04
83 | G1A C8U C13G | 0.57
84 | C31G U38A C46U | 0.19
85 | C3U C31A G36U | 0.04
86 | C8A C13U A26C G29A | 0.36
87 | G5C C23U C45G | 0.04
88 | A6G G22A C23G C37G | 0.01
89 | A6G C10G G22U A39U C45U | 0.02
90 | U32G C37U A41U | 0.05
91 | G5U A16C U28G G44U C45A | 0.02
92 | G7U C10G U32A | 0.01
93 | A4C G5A A24C | 0
94 | C3U G17U U28C G35C | 0.01
95 | G17A U20C G27A | 0.02
96 | G5U A11G G21C G22U | 0

Row | Variant | self-cleavage
97 | G21A G27C G40C | 0.26
98 | C10G G17U G27C U34G | 0.03
99 | G22U C31A G44C | 0.04
100 | C10G A11G U20C A25G A26C G36A | 0
101 | A11U A12C C15U A24G A41C | 0
102 | C18U G19A U34A | 0.02
103 | A4U U20A G36A C46G | 0.05
104 | G19C U38C G40C | 0.04
105 | C3G G7C A11U | 0.02
106 | A4C G7C A26C G30A G44A | 0.24
107 | G2U A12U U34A | 0.02
108 | A4C A25C G29C G40C | 0.02
109 | C3A G5C C8A G27U G29C C42A | 0.45
110 | C3A C15G G33U C45A | 0.04
111 | A14G G29U C42G | 0.05
112 | G22C G29U C46U | 0.17
113 | G21A U28A C37G C46U | 0.07
114 | C23A U34A G35A C46U | 0.05
115 | C23U U28A C37A | 0.01
116 | A4U G7A C37A | 0.49
117 | C3A A16G G27A G36C | 0.58
118 | G17U G22A C23A A24G G36U | 0.03
119 | C10U G21C C23A U28A | 0.33
120 | A11U G17A U34C | 0

Row | Variant | self-cleavage
121 | G21C G40C C42G | 0.05
122 | G1C C18U G22A C23G G27U | 0.11
123 | U9C C42G G44U | 0
124 | A4G A14U A39C | 0.07
125 | A25U G27U G30A U32C | 1.09
126 | A12U A26G G29U | 0.76
127 | G2U G19A C45U | 0.28
128 | C8A G19A A26U U32C G40U | 0.02
129 | A14G G22A A25C C31G | 0.09
130 | A11G A16U A24U G29U | 0.04
131 | G5U C10U G36A C45U | 0.07
132 | C3A C8A C15U C18U G21C G44A | 0.48
133 | G17U U34C A39G | 0.03
134 | G1C C10G C13G A16U G27C G33A U38G | 0
135 | G2A A12U A41G | 0.08
136 | C3U C31U G33U | 0.14
137 | U34A A39G C46U | 0.04
138 | G27C U28G C45G | 1.07
139 | G2C A4G A14G U20G G33C G36C | 0.02
140 | G5A A25C G44U C45G | 0.05
141 | G2C G19C U43A | 0.08
142 | A16U G19A A25G | 0.01
143 | C13A G19C A26G G30A C37U | 0.03
144 | C8G C13U G36U C45A | 0.04

Row | Variant | self-cleavage
145 | A14U U28C A39U C45G | 0.15
146 | C23U A24G A26G G36A | 0.15
147 | A6C C8U G36U C37U U38A | 0.01
148 | C3U C10G A26C | 0.02
149 | U9C C15A C42A | 0
150 | C3A C18U C31G | 0.1
151 | G5U C23G C31U | 0.03
152 | A12U G17C G33U C37G G40C | 0.03
153 | U9G G35U C37A | 0.05
154 | G1C C8A C15U A39U | 0.02
155 | G27C U38A C45A | 0.17
156 | C13U G21A G29C G36A C42U | 0.57
157 | G19U U20A G22C A25G | 0.78
158 | G17U A25G C42G | 0.03
159 | A14G C15A A16U C18A G30A U34A | 0.14
160 | G19C G21U C23A | 0.25
161 | G2A G7A A14C U34G | 0.15
162 | G5A G17A G40C | 0.03
163 | G5U G27C G44U C46U | 0.14
164 | C8G C18A A24U C37U A41G | 0.02
165 | C3U C23U U28G | 0.41
166 | U32C G36U A41C | 0.15
167 | A14U C18A G21A U34C | 0.07
